In US20260209301A1 (LIFEARC, published 2026):
Like-named read-outs stand apart in the source and are kept apart here.

Columns and labels:
human GalR2 [1] = target: T1, human GalR2 (human, UniProt O43603 1-387); assay: radioligand competition: displacement of [125I]-galanin from membranes of cells overexpressing GalR2
T1 construct: whole, on cells; also called Galanin receptor 2; Galanin-2 Receptor
T1 sequence (looked up): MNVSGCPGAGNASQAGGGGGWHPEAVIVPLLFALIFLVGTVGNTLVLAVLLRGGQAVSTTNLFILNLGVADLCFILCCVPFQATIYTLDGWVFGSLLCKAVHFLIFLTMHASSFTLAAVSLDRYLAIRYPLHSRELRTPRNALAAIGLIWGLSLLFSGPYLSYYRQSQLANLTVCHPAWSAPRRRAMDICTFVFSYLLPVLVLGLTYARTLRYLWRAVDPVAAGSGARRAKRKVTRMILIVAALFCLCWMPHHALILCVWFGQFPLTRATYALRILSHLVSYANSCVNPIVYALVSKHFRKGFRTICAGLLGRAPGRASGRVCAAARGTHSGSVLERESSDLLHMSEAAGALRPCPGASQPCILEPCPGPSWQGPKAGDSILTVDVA

human GalR2 [2] = target: T1, human GalR2; assay: cell-based or functional assay
human GalR2 [3] = target: T1, human GalR2; assay: cell-based or functional assay; remark: listed apart in the source
human GalR2 [4] = target: T1, human GalR2; assay: cell-based or functional assay; remark: listed apart in the source
cynomolgus GalR2 = target: T2, cynomolgus GalR2 (Macaca fascicularis, UniProt A0A2K5WWW1 1-386); assay: cell-based or functional assay
T2 sequence: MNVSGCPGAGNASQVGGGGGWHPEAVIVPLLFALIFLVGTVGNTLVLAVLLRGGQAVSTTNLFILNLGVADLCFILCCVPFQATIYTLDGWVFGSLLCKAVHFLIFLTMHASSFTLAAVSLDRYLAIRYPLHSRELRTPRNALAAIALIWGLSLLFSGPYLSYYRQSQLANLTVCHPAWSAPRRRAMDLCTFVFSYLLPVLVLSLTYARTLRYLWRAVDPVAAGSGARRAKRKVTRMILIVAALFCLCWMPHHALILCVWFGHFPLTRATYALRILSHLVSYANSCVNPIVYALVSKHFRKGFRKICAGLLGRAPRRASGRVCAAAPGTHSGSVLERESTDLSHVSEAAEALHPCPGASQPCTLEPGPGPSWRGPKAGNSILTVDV

mouse GalR2 = target: T3, mouse GalR2 (Mus musculus, UniProt O88854 1-371); assay: cell-based or functional assay
T3 sequence (looked up): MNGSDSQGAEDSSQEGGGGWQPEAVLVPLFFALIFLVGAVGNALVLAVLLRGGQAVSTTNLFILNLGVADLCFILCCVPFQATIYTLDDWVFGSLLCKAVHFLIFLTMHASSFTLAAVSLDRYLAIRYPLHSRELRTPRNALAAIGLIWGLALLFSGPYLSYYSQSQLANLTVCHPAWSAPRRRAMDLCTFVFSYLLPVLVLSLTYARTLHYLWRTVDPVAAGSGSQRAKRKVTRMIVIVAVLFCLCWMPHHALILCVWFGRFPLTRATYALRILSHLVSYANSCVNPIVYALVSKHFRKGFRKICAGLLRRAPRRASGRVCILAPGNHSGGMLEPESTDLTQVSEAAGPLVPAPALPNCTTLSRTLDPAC

rat GalR2 = target: T4, rat GalR2 (Rattus rattus, UniProt O08726 1-372); assay: cell-based or functional assay
T4 sequence (looked up): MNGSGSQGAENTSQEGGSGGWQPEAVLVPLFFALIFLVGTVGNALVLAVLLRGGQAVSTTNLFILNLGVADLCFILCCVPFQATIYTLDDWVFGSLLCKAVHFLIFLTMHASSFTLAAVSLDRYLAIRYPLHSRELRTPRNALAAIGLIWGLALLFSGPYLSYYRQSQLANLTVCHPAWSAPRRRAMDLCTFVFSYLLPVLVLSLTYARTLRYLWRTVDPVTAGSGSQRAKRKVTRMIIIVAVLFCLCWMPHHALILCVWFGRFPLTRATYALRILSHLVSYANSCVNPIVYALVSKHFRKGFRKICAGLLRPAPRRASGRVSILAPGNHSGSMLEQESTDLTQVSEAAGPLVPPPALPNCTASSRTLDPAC

human GalR2 [5] = target: T1, human GalR2; assay: cell-based or functional assay; remark: listed apart in the source
human GalR1 [6] = target: T5, human GalR1 (human, UniProt P47211 1-349); assay: cell-based or functional assay
T5 sequence (looked up): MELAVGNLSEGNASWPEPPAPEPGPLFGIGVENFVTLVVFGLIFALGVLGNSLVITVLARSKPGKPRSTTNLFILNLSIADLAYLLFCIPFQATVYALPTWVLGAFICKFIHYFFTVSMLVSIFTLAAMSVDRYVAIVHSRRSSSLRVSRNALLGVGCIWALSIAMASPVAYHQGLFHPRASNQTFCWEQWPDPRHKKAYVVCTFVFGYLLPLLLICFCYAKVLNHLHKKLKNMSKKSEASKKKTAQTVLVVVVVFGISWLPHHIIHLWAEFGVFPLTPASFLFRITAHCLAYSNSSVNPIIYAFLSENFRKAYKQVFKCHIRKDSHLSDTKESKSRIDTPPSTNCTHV

human GalR1 [7] = target: T5, human GalR1; assay: cell-based or functional assay; remark: listed apart in the source

B1: Gal2-12FC (Fc fusion)
chain: WTLNSAGYLLGAEAAAKEAAAKAL[human IgG1 Fc with C220S (EU numbers) not spelt out]
notes: also called Gal2-12FC Mature chimeric protein
- pIC50 (human GalR2 [1]): 7.24 pIC50
- luciferase reporter gene assay (NFAT-RE), activity; quantity not named (human GalR2 [2]): 320 nM
- Beta Arrestin pEC50 (human GalR2 [3]): 7.6 pEC50
- Calcium pEC50 (human GalR2 [3]): 6.3 pEC50
- calcium assay activity (quantity not given) (human GalR2 [4]): 6.6

B2: Gal2-13FC (Fc fusion)
chain: WTLNSAGYLLGPAEAAAKEAAAKAL[human IgG1 Fc with C220S (EU numbers) not spelt out]
notes: also called Gal2-13FC Mature chimeric protein; FC2-13
- pIC50 (human GalR2 [1]): 7.35 pIC50
- calcium assay activity (quantity not given) (cynomolgus GalR2): 7.7
- calcium assay activity (quantity not given) (mouse GalR2): 6.4
- calcium assay activity (quantity not given) (rat GalR2): 6.5
- luciferase reporter gene assay (NFAT-RE), activity; quantity not named (human GalR2 [2]): 312 nM
- calcium assay activity (quantity not given) (human GalR2 [5]): 6.4
- Beta Arrestin pEC50 (human GalR2 [3]): 6.7 pEC50
- Calcium pEC50 (human GalR2 [3]): 6.3 pEC50
- calcium assay activity (quantity not given) (human GalR2 [4]): 6.4

B3: Gal2-14FC (Fc fusion)
chain: WTLNSAGYLLGPHAEAAAKEAAAKALEPKSSDKTHTCPPCTRUE[human IgG1 Fc not spelt out]
- calcium assay activity (quantity not given) (human GalR2 [4]): 6.7

B4: Gal2-15FC (Fc fusion)
chain: WTLNSAGYLLGPHAAEAAAKEAAAKALEPKSSDKTHTCPPCTRUE[human IgG1 Fc not spelt out]
- calcium assay activity (quantity not given) (human GalR2 [4]): 6.8

B5: Gal2-16FC (Fc fusion)
chain: WTLNSAGYLLGPHAVAEAAAKEAAAKALEPKSSDKTHTCPPCTRUE[human IgG1 Fc not spelt out]
- calcium assay activity (quantity not given) (human GalR2 [4]): 6.9

B6: Gal2-17FC (Fc fusion)
chain: WTLNSAGYLLGPHAVGAEAAAKEAAAKALEPKSSDKTHTCPPCTRUE[human IgG1 Fc not spelt out]
- calcium assay activity (quantity not given) (human GalR2 [4]): 6.6

B7: Gal2-18FC (Fc fusion)
chain: WTLNSAGYLLGPHAVGNAEAAAKEAAAKALEPKSSDKTHTCPPCTRUE[human IgG1 Fc not spelt out]
- Beta Arrestin pEC50 (human GalR2 [3]): 7.3 pEC50
- Calcium pEC50 (human GalR2 [3]): 6.7 pEC50
- calcium assay activity (quantity not given) (human GalR2 [4]): 6.7

B8: Gal2-24FC (Fc fusion)
chain: WTLNSAGYLLGPHAVGNHRSFSDAEAAAKEAAAKALEPKSSDKTHTCPPCTRUE[human IgG1 Fc not spelt out]
- Beta Arrestin pEC50 (human GalR2 [3]): 7.6 pEC50
- Calcium pEC50 (human GalR2 [3]): 6.9 pEC50
- calcium assay activity (quantity not given) (human GalR2 [4]): 6.9

B9: Gal2-30FC (Fc fusion)
chain: WTLNSAGYLLGPHAVGNHRSFSDKNGLTSAEAAAKEAAAKAL[human IgG1 Fc with C220S (EU numbers) not spelt out]
notes: also called Gal2-30FC Mature chimeric protein
- pIC50 (human GalR2 [1]): 7.55 pIC50
- luciferase reporter gene assay (NFAT-RE), activity; quantity not named (human GalR2 [2]): 59 nM
- Beta Arrestin pEC50 (human GalR2 [3]): 7.3 pEC50
- Calcium pEC50 (human GalR2 [3]): 6.6 pEC50
- calcium assay activity (quantity not given) (human GalR2 [4]): 6.8

B10: Gal2-13FC GGS (Fc fusion)
chain: WTLNSAGYLLGPGGSLEPKSSDKTHTCPPCTRUE[human IgG1 Fc not spelt out]
- cAMP assay activity (quantity not given) (human GalR1 [6]): 5.3
- calcium assay activity (quantity not given) (human GalR2 [5]): 6.4

B11: Gal2-13FC GGS2 (Fc fusion)
chain: WTLNSAGYLLGPGGSGGSLEPKSSDKTHTCPPCTRUE[human IgG1 Fc not spelt out]
- cAMP assay activity (quantity not given) (human GalR1 [6]): 5.5
- calcium assay activity (quantity not given) (human GalR2 [5]): 6.4

B12: Gal2-13FC GGS4 (Fc fusion)
chain: WTLNSAGYLLGPGGSGGSGGSGGSLEPKSSDKTHTCPPCTRUE[human IgG1 Fc not spelt out]
- cAMP assay activity (quantity not given) (human GalR1 [6]): 5.3
- calcium assay activity (quantity not given) (human GalR2 [5]): 6.2

B13: Gal2-13FC PA4 (Fc fusion)
chain: WTLNSAGYLLGPPAPAPAPALEPKSSDKTHTCPPCTRUE[human IgG1 Fc not spelt out]
- cAMP assay activity (quantity not given) (human GalR1 [6]): 6.1
- calcium assay activity (quantity not given) (human GalR2 [5]): 6.8

B14: Gal1-30FC (Fc fusion)
chain: GWTLNSAGYLLGPHAVGNHRSFSDKNGLTSAEAAAKEAAAKALEPKSSDKTHTCPPCTRUE[human IgG1 Fc not spelt out]
- Beta Arrestin IA (%) (human GalR1 [7]): 88.1%
- Beta Arrestin pEC50 (human GalR1 [7]): 5.72 pEC50
- cAMP IA (%) (human GalR1 [7]): 93.4%
- cAMP pEC50 (human GalR1 [7]): 8.4 pEC50
- Beta Arrestin pEC50 (human GalR2 [3]): 5.7 pEC50
- Calcium pEC50 (human GalR2 [3]): 6.4 pEC50
